Test results published in the supplement of paper PMC4967469.
A lower IC50 marks a more sensitive line; fits outside the tested doses are given as limits. For AUC the same curve is integrated over the 256-fold range of doses and scaled to a fraction: 1 means no effect, lower means more sensitive. For part of these data: The top dose, if marked as inferred, is not printed in the source and was worked back from the curve model. For part of these data: Drugs with an entry number were screened twice under separate entries, and the two screens often disagree.

Legend:
Test in all cases: Viability of human cancer cell lines after 72 h of drug (GDSC screen)
[1] = compound: COc1cc(N2CCC(N3CCN(C)CC3)CC2)ccc1Nc1ncc(Cl)c(Nc2ccccc2S(=O)(=O)C(C)C)n1 [NVP-TAE684]; conditions: top dose 2 µM
Protocol: (§1)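 Human cancer cell lines in 384-well plates, medium with 10% serum, drug for 72 h over a 256-fold dose range (nine 2-fold or five 4-fold steps up to the top dose). Adherent lines were fixed and stained with the nucleic acid dye Syto60, suspension lines read with resazurin; signal relative to control wells, capped at 0 and 100%. One two-parameter sigmoid per drug and line, fitted in a mixed model over all curves with the slope shared within a line.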

[2] = compound: O=C(/C=C/c1cccc(S(=O)(=O)Nc2ccccc2)c1)NO [Belinostat]; conditions: top dose 20 µM; top dose inferred
Protocol: as §1

[3] = compound: CN1CCN(c2ccc([N+](=O)[O-])c3no[n+]([O-])c23)CC1 [NSC-207895]; conditions: top dose 20 µM; top dose inferred
Protocol: as §1

[4] = compound: CC1(C)CNc2cc(NC(=O)c3cccnc3NCc3ccncc3)ccc21 [AMG-706]; conditions: top dose 2 µM; top dose inferred
Protocol: as §1

[5] = compound: CCOc1nc(NC(=O)Cc2cc(OC)ccc2OC)cc(N)c1C#N [JNK Inhibitor VIII]; conditions: top dose 10 µM; top dose inferred
Protocol: as §1

[6] = compound: OCCCNc1cc(-c2ccnc(Nc3cccc(Cl)c3)n2)ccn1 [CGP-60474]; conditions: top dose 0.256 µM; top dose inferred
Protocol: as §1

[7] = compound: C[C@]1(O)C[C@@H](c2nc(-c3ccc4ccc(-c5ccccc5)nc4c3)c3c(N)nccn32)C1 [OSI-906]; conditions: top dose 2.56 µM; top dose inferred
Protocol: as §1

[8] = compound: COC(=O)[C@H](CCSC)NC(=O)c1ccc(NC[C@@H](N)CS)cc1-c1ccccc1 [FTI-277]; conditions: top dose 1.024 µM; top dose inferred
Protocol: as §1

[9] = compound: Cc1sc2c(c1C)C(c1ccc(Cl)cc1)=N[C@@H](CC(=O)OC(C)(C)C)c1nnc(C)n1-2 [JQ1]
Protocol: as §1

[10] = compound: c1ccc2c(CCNc3ccc(Nc4ccncc4)cc3)c[nH]c2c1 [JNJ-26854165]; conditions: top dose 10 µM
Protocol: as §1

[11] = compound: Cc1ccc(C(=O)N(CCCN)[C@@H](c2nc3cc(Cl)ccc3c(=O)n2Cc2ccccc2)C(C)C)cc1 [SB-715992]; conditions: top dose 0.128 µM; top dose inferred
Protocol: as §1

[12] = compound: CC(=O)O[C@@]12CO[C@@H]1C[C@H](O)[C@@]1(C)C(=O)[C@H](O)C3=C(C)[C@@H](OC(=O)[C@H](O)[C@@H](NC(=O)OC(C)(C)C)c4ccccc4)C[C@@](O)([C@@H](OC(=O)c4ccccc4)[C@H]21)C3(C)C [Docetaxel]; conditions: top dose 0.0125 µM
Protocol: as §1

[13] = compound: COCC[n+]1c2c(n(Cc3cnccn3)c1C)C(=O)c1ccccc1C2=O [YM155]; conditions: top dose 5.12 µM
Protocol: as §1

[14] = compound: CC1=C2C[C@H]3[C@@H](CC=C4C[C@@H](O)CC[C@@]43C)[C@@H]2CC[C@]12O[C@@H]1C[C@H](C)CN[C@H]1[C@H]2C [Cyclopamine]; conditions: top dose 16 µM; top dose inferred
Protocol: as §1

[15] = top dose 1 µM, screen: GDSC drug entry 1218, top dose inferred
[16] = top dose 2.56 µM, screen: GDSC drug entry 163

## NCI-H1876 (small cell lung carcinoma, adherent)
[1]
  AUC: 0.855
  IC50: 1620 nM
[2]
  AUC: 0.399
  IC50: 659 nM
[3]
  AUC: 0.953
  IC50: > 20000 nM
[4]
  AUC: 0.981
  IC50: > 2000 nM
[5]
  AUC: 0.987
  IC50: > 10000 nM
[6]
  AUC: 0.752
  IC50: 85.6 nM
[7]
  AUC: 0.987
  IC50: > 2560 nM
[8]
  AUC: 0.987
  IC50: > 1020 nM
[9]; [15]
  AUC: 0.986
  IC50: > 1000 nM
[9]; [16]
  AUC: 0.987
  IC50: > 2560 nM
[10]
  AUC: 0.983
  IC50: > 10000 nM
[11]
  AUC: 0.875
  IC50: > 128 nM
[12]
  AUC: 0.93
  IC50: > 12.5 nM
[13]
  AUC: 0.029
  IC50: < 20 nM
[14]
  AUC: 0.987
  IC50: > 16000 nM

## EB2 (Burkitt lymphoma, suspension)
[1]
  AUC: 0.989
  IC50: > 2000 nM
[2]
  AUC: 0.308
  IC50: 384 nM
[3]
  AUC: 0.878
  IC50: 17000 nM
[4]
  AUC: 0.989
  IC50: > 2000 nM
[5]
  AUC: 0.99
  IC50: > 10000 nM
[6]
  AUC: 0.965
  IC50: > 256 nM
[7]
  AUC: 0.988
  IC50: > 2560 nM
[8]
  AUC: 0.985
  IC50: > 1020 nM
[9]; [15]
  AUC: 0.985
  IC50: > 1000 nM
[9]; [16]
  AUC: 0.854
  IC50: 1730 nM
[10]
  AUC: 0.978
  IC50: > 10000 nM
[11]
  AUC: 0.558
  IC50: 11.3 nM
[12]
  AUC: 0.99
  IC50: > 12.5 nM
[13]
  AUC: 0.023
  IC50: < 20 nM
[14]
  AUC: 0.956
  IC50: > 16000 nM

## BC-1 (B-cell lymphoma, suspension)
[1]
  AUC: 0.975
  IC50: > 2000 nM
[2]
  AUC: 0.282
  IC50: 337 nM
[3]
  AUC: 0.792
  IC50: 7590 nM
[4]
  AUC: 0.991
  IC50: > 2000 nM
[5]
  AUC: 0.979
  IC50: > 10000 nM
[6]
  AUC: 0.76
  IC50: 78 nM
[7]
  AUC: 0.933
  IC50: > 2560 nM
[8]
  AUC: 0.973
  IC50: > 1020 nM
[9]; [15]
  AUC: 0.663
  IC50: 164 nM
[9]; [16]
  AUC: 0.439
  IC50: 112 nM
[10]
  AUC: 0.915
  IC50: > 10000 nM
[11]
  AUC: 0.537
  IC50: 9.94 nM
[12]
  AUC: 0.986
  IC50: > 12.5 nM
[13]
  AUC: 0.017
  IC50: < 20 nM
[14]
  AUC: 0.961
  IC50: > 16000 nM

## H9 (lymphoid neoplasm, suspension)
[1]
  AUC: 0.899
  IC50: 1730 nM
[2]
  AUC: 0.987
  IC50: > 20000 nM
[3]
  AUC: 0.982
  IC50: > 20000 nM
[4]
  AUC: 0.991
  IC50: > 2000 nM
[5]
  AUC: 0.992
  IC50: > 10000 nM
[6]
  AUC: 0.769
  IC50: 80.5 nM
[7]
  AUC: 0.992
  IC50: > 2560 nM
[8]
  AUC: 0.99
  IC50: > 1020 nM
[9]; [15]
  AUC: 0.983
  IC50: > 1000 nM
[9]; [16]
  AUC: 0.534
  IC50: 195 nM
[10]
  AUC: 0.989
  IC50: > 10000 nM
[11]
  AUC: 0.826
  IC50: 59.8 nM
[12]
  AUC: 0.901
  IC50: 11 nM
[13]
  AUC: 0.987
  IC50: > 5120 nM
[14]
  AUC: 0.986
  IC50: > 16000 nM

## OCI-M1 (acute myeloid leukaemia, suspension)
[1]
  AUC: 0.96
  IC50: > 2000 nM
[2]
  AUC: 0.094
  IC50: 100 nM
[3]
  AUC: 0.792
  IC50: 6770 nM
[4]
  AUC: 0.993
  IC50: > 2000 nM
[5]
  AUC: 0.991
  IC50: > 10000 nM
[6]
  AUC: 0.894
  IC50: 180 nM
[7]
  AUC: 0.995
  IC50: > 2560 nM
[8]
  AUC: 0.995
  IC50: > 1020 nM
[9]; [15]
  AUC: 0.839
  IC50: 464 nM
[9]; [16]
  AUC: 0.665
  IC50: 407 nM
[10]
  AUC: 0.983
  IC50: > 10000 nM
[11]
  AUC: 0.818
  IC50: 51.4 nM
[12]
  AUC: 0.994
  IC50: > 12.5 nM
[13]
  AUC: 0.114
  IC50: 30.4 nM
[14]
  AUC: 0.995
  IC50: > 16000 nM

## SU-DHL-16 (B-cell lymphoma, suspension)
[1]
  AUC: 0.9
  IC50: 1310 nM
[2]
  AUC: 0.008
  IC50: < 78.1 nM
[3]
  AUC: 0.79
  IC50: 6430 nM
[4]
  AUC: 0.996
  IC50: > 2000 nM
[5]
  AUC: 0.994
  IC50: > 10000 nM
[6]
  AUC: 0.691
  IC50: 46.5 nM
[7]
  AUC: 0.992
  IC50: > 2560 nM
[8]
  AUC: 0.995
  IC50: > 1020 nM
[9]; [15]
  AUC: 0.994
  IC50: > 1000 nM
[9]; [16]
  AUC: 0.468
  IC50: 134 nM
[10]
  AUC: 0.98
  IC50: > 10000 nM
[11]
  AUC: 0.73
  IC50: 28.9 nM
[12]
  AUC: 0.894
  IC50: 7.85 nM
[13]
  AUC: 0.007
  IC50: < 20 nM
[14]
  AUC: 0.992
  IC50: > 16000 nM

## EoL-1-cell (haematopoietic neoplasm, suspension)
[1]
  AUC: 0.969
  IC50: > 2000 nM
[2]
  AUC: 0.21
  IC50: 200 nM
[3]
  AUC: 0.777
  IC50: 7070 nM
[4]
  AUC: 0.029
  IC50: < 7.81 nM
[5]
  AUC: 0.986
  IC50: > 10000 nM
[6]
  AUC: 0.855
  IC50: 167 nM
[7]
  AUC: 0.933
  IC50: > 2560 nM
[8]
  AUC: 0.981
  IC50: > 1020 nM
[9]; [15]
  AUC: 0.979
  IC50: > 1000 nM
[9]; [16]
  AUC: 0.662
  IC50: 424 nM
[10]
  AUC: 0.605
  IC50: 1170 nM
[11]
  AUC: 0.784
  IC50: 47.7 nM
[12]
  AUC: 0.798
  IC50: 5.16 nM
[13]
  AUC: 0.024
  IC50: < 20 nM
[14]
  AUC: 0.898
  IC50: > 16000 nM

## SW962 (urogenital system, adherent)
[1]
  AUC: 0.8
  IC50: 1250 nM
[2]
  AUC: 0.468
  IC50: 1000 nM
[3]
  AUC: 0.872
  IC50: > 20000 nM
[4]
  AUC: 0.922
  IC50: > 2000 nM
[5]
  AUC: 0.975
  IC50: > 10000 nM
[6]
  AUC: 0.627
  IC50: 39 nM
[7]
  AUC: 0.868
  IC50: > 2560 nM
[8]
  AUC: 0.936
  IC50: > 1020 nM
[9]; [15]
  AUC: 0.926
  IC50: > 1000 nM
[9]; [16]
  AUC: 0.839
  IC50: 2410 nM
[10]
  AUC: 0.918
  IC50: > 10000 nM
[11]
  AUC: 0.946
  IC50: > 128 nM
[12]
  AUC: 0.724
  IC50: 3.99 nM
[13]
  AUC: 0.038
  IC50: < 20 nM
[14]
  AUC: 0.972
  IC50: > 16000 nM
